Two molecules from article PMC8456271 can be followed below.

Chains of the proteins cited; added tags and fusions are not shown.
UniProt Q16539: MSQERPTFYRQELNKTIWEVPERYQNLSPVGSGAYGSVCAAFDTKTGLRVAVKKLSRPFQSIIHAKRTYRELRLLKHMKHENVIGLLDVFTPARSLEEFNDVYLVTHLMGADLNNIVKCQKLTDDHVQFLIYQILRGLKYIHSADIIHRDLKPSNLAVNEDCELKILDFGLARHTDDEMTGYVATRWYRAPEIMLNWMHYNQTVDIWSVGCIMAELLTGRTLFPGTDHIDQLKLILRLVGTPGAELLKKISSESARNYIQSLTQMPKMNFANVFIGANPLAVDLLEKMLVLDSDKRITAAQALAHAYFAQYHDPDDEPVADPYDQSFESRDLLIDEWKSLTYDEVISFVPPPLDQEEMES

These are yes or no findings as the source states them, for the method shown. Binding seen in cells or lysates may run through a third protein. Some binding calls cover weakened binding; strength is not graded here. Sequences can lack the tags named with a protein.

For assay [1], the target named is GST‐p38 (UniProt Q16539). The assay is described as follows: pull-down; purified GST proteins on Glutathione Agarose beads, incubated with cell lysates at 4 °C for 2–4 h, washed three times with lysis buffer, Western blotting; only the target purified. On the technique in general: Immunoblotting shows a protein as a band on a membrane.
Assay [2] addresses T1, GST‐MKK6 (UniProt P52564).
T1 sequence: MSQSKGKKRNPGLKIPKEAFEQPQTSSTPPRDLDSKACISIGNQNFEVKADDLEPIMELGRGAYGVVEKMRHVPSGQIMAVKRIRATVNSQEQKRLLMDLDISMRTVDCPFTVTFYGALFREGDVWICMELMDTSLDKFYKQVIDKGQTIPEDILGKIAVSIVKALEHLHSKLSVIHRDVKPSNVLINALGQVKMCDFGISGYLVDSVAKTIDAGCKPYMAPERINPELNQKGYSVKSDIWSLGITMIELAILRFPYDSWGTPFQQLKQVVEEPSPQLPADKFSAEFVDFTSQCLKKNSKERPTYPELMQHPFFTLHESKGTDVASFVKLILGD
Described as above.

The target of assay [3] is T2, GST‐MKK3 (UniProt P46734).
T2 sequence: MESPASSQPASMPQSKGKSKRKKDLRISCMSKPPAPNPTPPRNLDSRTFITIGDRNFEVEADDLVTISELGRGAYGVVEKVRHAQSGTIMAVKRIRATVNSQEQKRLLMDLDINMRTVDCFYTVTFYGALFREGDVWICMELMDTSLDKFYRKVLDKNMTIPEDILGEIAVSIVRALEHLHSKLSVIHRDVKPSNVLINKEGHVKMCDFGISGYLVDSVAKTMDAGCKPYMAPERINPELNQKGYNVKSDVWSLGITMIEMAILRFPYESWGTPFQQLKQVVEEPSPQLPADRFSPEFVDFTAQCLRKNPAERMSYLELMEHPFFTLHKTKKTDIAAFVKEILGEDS
Described as above.

Assay [4] addresses GST‐p38 (UniProt Q16539). The assay is described as follows: FRET or BRET; cell lysates containing Venus‐tagged DDIT4 (acceptor) incubated with GST recombinant proteins (donor); 20 × 10^−3 M Tris pH 7.0, 50 × 10^−3 M NaCl, 0.01% NP‐40; 96‐well plate, room temperature, 1 h; ratio 520 nm / 486 nm; only the target purified. On the technique in general: Bioluminescence resonance energy transfer reports proximity on the nanometre scale.

Assay [5] concerns the target T1, GST‐MKK6. The assay is described as above.
The target in assay [6] is T2, GST‐MKK3. The description is as above.

B1: DDIT4 in cell lysates (GST pull‐down) (protein, UniProt Q9NX09 1-232)
chain: MPSLWDRFSSSSTSSSPSSLPRTPTPDRPPRSAWGSATREEGFDRSTSLESSDCESLDSSNSGFGPEEDTAYLDGVSLPDFELLSDPEDEHLCANLMQLLQESLAQARLGSRRPARLLMPSQLVSQVGKELLRLAYSEPCGLRGALLDVCVEQGKSCHSVGQLALDPSLVPTFQLTLVLRLDSRLWPKIQGLFSSANSPFLPGFSQSLTLSTGFRVIKKKLYSSEQLLIEEC
In the case of B1, the binding entry is on record as “binds” in the assay with GST‐p38 [1], “no binding” with GST‐MKK6 [2] and “no binding” in the assay with GST‐MKK3 [3].

B2: Venus‐tagged DDIT4 (protein, UniProt Q9NX09 1-232)
chain: MPSLWDRFSSSSTSSSPSSLPRTPTPDRPPRSAWGSATREEGFDRSTSLESSDCESLDSSNSGFGPEEDTAYLDGVSLPDFELLSDPEDEHLCANLMQLLQESLAQARLGSRRPARLLMPSQLVSQVGKELLRLAYSEPCGLRGALLDVCVEQGKSCHSVGQLALDPSLVPTFQLTLVLRLDSRLWPKIQGLFSSANSPFLPGFSQSLTLSTGFRVIKKKLYSSEQLLIEEC
As for B2, the binding entry was “binds” with GST‐p38 [4], “no binding” with GST‐MKK6 [5] and “no binding” with GST‐MKK3 [6].
